From the RNAGym collection of RNA variant scans (doi:10.1101/gad.245936.114)
Variants at the floor of the assay are shown more often than the library holds them.

B1: tRNA (parent)
chain: CUCUCGGUAGCCAAGUUGGUUUAAGGCGCAAGACUUUAAUUUAUCACUACGAAAUCUUGAGAUCGGGCGUUCGACUCGCCCCCGGGAGAUUUUUUCCUCGAGCAA

Variants of: B1
Assay: nonsense suppression (GFP-seq) (ratio to wild type); higher = more function; SUP4oc tRNA, yeast GFP reporter sort-seq
In short: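 Yeast were grown in raffinose/galactose medium with 80 mg/L adenine, each strain bearing a genome-integrated ochre-suppressor tRNA variant from a ~3% random-mutation library, a galactose-driven GFP ochre reporter, and RFP. After sorting into GFP/RFP bins, every bin was sequenced on an Illumina platform at phred ≥30. The GFPSEQ value, a measure of nonsense suppression, is the weighted bin median GFP/RFP relative to the unmutated parent tRNA, using each variant's estimated cell share per bin as the weight. Only variants with ≥100 reads and ≥30 cells were included.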

Row | Variant | nonsense suppression
1 | U35G G67U U71G | ≤ 0.026
2 | C34G C56G G88C | ≤ 0.026
3 | G32U G88A A89C | ≤ 0.026
4 | U35G G59U | ≤ 0.026
5 | U35G G59C | ≤ 0.026
6 | U35G U55A | ≤ 0.026
7 | U35G U55C | ≤ 0.026
8 | U35A U70C C82G A87U | ≤ 0.026
9 | C34A A54G | ≤ 0.026
10 | C34U U58A C64G | ≤ 0.026
11 | U35A G61C | ≤ 0.026
12 | U35A G61A | ≤ 0.026
13 | C34A G69C U70C U76C | ≤ 0.026
14 | U35G C75A | ≤ 0.026
15 | A33G G61U | 0.119
16 | A33G G61C | 0.034
17 | A33G A54U | 0.0526
18 | C34U A54G C77A | ≤ 0.026
19 | A33U G69C | ≤ 0.026
20 | A33U G73C | ≤ 0.026
21 | U35G U63G | ≤ 0.026
22 | C34U U55A | ≤ 0.026
23 | A33U C56U | ≤ 0.026
24 | C34U U63C | ≤ 0.026

Row | Variant | nonsense suppression
25 | U35A G67A G86C | ≤ 0.026
26 | C34A G86A | ≤ 0.026
27 | A33G C56A C68U G88A | ≤ 0.026
28 | C34U A74G | ≤ 0.026
29 | A33C U57G C64G G88U | ≤ 0.026
30 | C34A A54U U71A C75A | ≤ 0.026
31 | C34U U57A G59C | ≤ 0.026
32 | U35C C77U | ≤ 0.026
33 | A33C C79A | ≤ 0.026
34 | C34G G67A G88U | ≤ 0.026
35 | U35G U57A | ≤ 0.026
36 | A33C C68A A89U | ≤ 0.026
37 | A33G A60C | ≤ 0.026
38 | A33U G65U | ≤ 0.026
39 | G32U U55A C81G | ≤ 0.026
40 | G32U U57A G61A G69U U76C | ≤ 0.026
41 | C34A G59C G86C | ≤ 0.026
42 | A33U U58C G61U U63C C81U | ≤ 0.026
43 | A33U G66U G73C A87C | ≤ 0.026
44 | U35G A54C C77G | ≤ 0.026
45 | G32U U55G A60C | ≤ 0.026
46 | A33G C81A | ≤ 0.026
47 | A33G G85C | 0.0351
48 | U35A G88U | ≤ 0.026

Row | Variant | nonsense suppression
49 | U35A C56U | ≤ 0.026
50 | U35G G86C | ≤ 0.026
51 | A33C U35C C64G | ≤ 0.026
52 | A33G U58A | ≤ 0.026
53 | U35C U63G | 0.0352
54 | U35C A54C U70G G73A | ≤ 0.026
55 | C34G G59U | ≤ 0.026
56 | A33C C34G G84U | ≤ 0.026
57 | C34A U58G G85C | ≤ 0.026
58 | C34A G73A C79U | ≤ 0.026
59 | A33U U76G G78A | ≤ 0.026
60 | A33G U58A A87G | ≤ 0.026
61 | A33U C56U C81G | ≤ 0.026
62 | A33G G84U | 0.222
63 | U35C G65C | ≤ 0.026
64 | U35C G65U | ≤ 0.026
65 | U35G C77A | ≤ 0.026
66 | A33G C79A G88C | ≤ 0.026
67 | C34U G61C C80G C81U | ≤ 0.026
68 | C34U U63C C80U | ≤ 0.026
69 | A33G G66U | ≤ 0.026
70 | A33G G66C | 0.0263
71 | U35C U55G G66U C81U | ≤ 0.026
72 | A33G C34U | ≤ 0.026

Row | Variant | nonsense suppression
73 | C34G A87G | ≤ 0.026
74 | C34A C79A | ≤ 0.026
75 | C34U G85U | ≤ 0.026
76 | C34U G85A | ≤ 0.026
77 | A33G G88U | ≤ 0.026
78 | A33U C68A | ≤ 0.026
79 | C34A U57G A62U | ≤ 0.026
80 | A33G C77A G88U | ≤ 0.026
81 | C34U A74G G86A | ≤ 0.026
82 | A33U U58G | ≤ 0.026
83 | A33U C56G A87U | ≤ 0.026
84 | C34G G88C | ≤ 0.026
85 | A33U G85U | ≤ 0.026
86 | U35C U57A U76A | ≤ 0.026
87 | C34U A60U G66A | ≤ 0.026
88 | A33G C79U | 0.0403
89 | A33G G69A C81U | ≤ 0.026
90 | C34A G59C | ≤ 0.026
91 | C34A C56G C68G | ≤ 0.026
92 | U35G U58A U76C | ≤ 0.026
93 | A33U G66A G84U | ≤ 0.026
94 | A33C A60G C64G | ≤ 0.026
95 | A33C C64G C80A | ≤ 0.026
96 | A33U G69A G73A A87C | ≤ 0.026

Row | Variant | nonsense suppression
97 | A33G U58A C64G G69C G78C | ≤ 0.026
98 | A33C C56A G65C G67A C68A G73A C77G G88A | ≤ 0.026
99 | U35G G73C | ≤ 0.026
100 | C34U U70C | ≤ 0.026
101 | G32U U76C | ≤ 0.026
102 | A33C C64A | ≤ 0.026
103 | U35G G88U | ≤ 0.026
104 | U35G C72A A74U G84A | ≤ 0.026
105 | A33G U70A C77G | ≤ 0.026
106 | U35C C79A | ≤ 0.026
107 | C34U U71A | ≤ 0.026
108 | U35A C72G G86U | ≤ 0.026
109 | C34A U35C G69C | ≤ 0.026
110 | U35A G69A | ≤ 0.026
111 | A33G G67U U76A A87C | ≤ 0.026
112 | A33U A60U G67U | ≤ 0.026
113 | C34U U63C G84U | ≤ 0.026
114 | C34U G61C C79G C82G | ≤ 0.026
115 | A54C C68G | ≤ 0.026
116 | C34U A89G | ≤ 0.026
117 | A33U A60U | 0.204
118 | U35G C56G U76C | ≤ 0.026
119 | C34A A87U | ≤ 0.026
120 | A33C C34G | ≤ 0.026

Row | Variant | nonsense suppression
121 | A33C C34U | ≤ 0.026
122 | C34G U71A G78C G85A | ≤ 0.026
123 | A33G A62C | ≤ 0.026
124 | U35G U58A | ≤ 0.026
125 | A33G C83G | ≤ 0.026
126 | A33C U76C | ≤ 0.026
127 | C34U A60C C72A | ≤ 0.026
128 | C34U A60C C72G | ≤ 0.026
129 | C34G A62C | ≤ 0.026
130 | A33G A54C C64U | ≤ 0.026
131 | U35G U71G U76G | ≤ 0.026
132 | U35G G69C C82G | ≤ 0.026
133 | C34U G65A G66U | ≤ 0.026
134 | A33U C64G U76C | ≤ 0.026
135 | C34G C68G C77U | ≤ 0.026
136 | U35A G66A G84C | ≤ 0.026
137 | A33U C64G | ≤ 0.026
138 | U35G G66C C75G C77A | ≤ 0.026
139 | U35G A60C G66A C79U | ≤ 0.026
140 | C34A U57C G86A | ≤ 0.026
141 | A33G G78C | ≤ 0.026
142 | A33C C64A G85U | ≤ 0.026
143 | C34G U55C C77A | ≤ 0.026
144 | C34G C64A | ≤ 0.026

Row | Variant | nonsense suppression
145 | U35G G65C U70A | ≤ 0.026
146 | A54C C68U U70A U76C | ≤ 0.026
147 | U35C C80G | ≤ 0.026
148 | U35C C80U | ≤ 0.026
149 | U35A U57G G65U C82A | ≤ 0.026
150 | C34A U55C | ≤ 0.026
151 | A33G U57G G65A U76A | ≤ 0.026
152 | U35C C68A | ≤ 0.026
153 | C34U C68U | ≤ 0.026
154 | A54C C75G | 1.15
155 | C34U U35G C79G | ≤ 0.026
156 | C34U U57C | ≤ 0.026
157 | C34U U63C C75A C81G G84C | ≤ 0.026
158 | A33U U71A G78U C82U | ≤ 0.026
159 | C34G C80G | ≤ 0.026
160 | U35A G67U | ≤ 0.026
161 | A33G G59C | ≤ 0.026
162 | A33G G59A | ≤ 0.026
163 | C34U U57C G61A | ≤ 0.026
164 | G32U U63A C82U | 0.0283
165 | U35G A54G | ≤ 0.026
166 | U35G G84U | ≤ 0.026
167 | A33U G84U | ≤ 0.026
